# Data reported in publication PMC9911399, “Two distinct binding modes provide the RNA-binding protein RbFox with extraordinary sequence specificity”.
# Residue numbers refer to the chain shown, from its start. Some of the results follow.
# T1: RBFOX1 RRM RbFoxmut (Fox-RRM*) (Homo sapiens, UniProt Q9NWB1 109-208, R118D;E147R;N151S;E152T)
# T1 sequence: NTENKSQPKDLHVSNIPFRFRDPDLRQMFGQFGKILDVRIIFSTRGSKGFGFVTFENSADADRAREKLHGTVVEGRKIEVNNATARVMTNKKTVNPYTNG
# B1: UAAUUGU (DNA:RNA)
# RNA: GGGAGACCGGAAUUCAGAUUGUCCUAAUUGUUUAAAUCCCGUCGUAGCCACCA
# DNA 1: CAATCTGAATTCCGGTCTCCC
# DNA 2: TGGTGGCTACGACGGGATT
# B2: AAUAUCG (DNA:RNA)
# RNA: B1 RNA with U25A, A27U, U28A, G30C, U31G
# DNA 1: CAATCTGAATTCCGGTCTCCC
# DNA 2: TGGTGGCTACGACGGGATT
# B3: UCAGGAG (DNA:RNA)
# RNA: B1 RNA with A26C, U28G, U29G, G30A, U31G
# DNA 1: CAATCTGAATTCCGGTCTCCC
# DNA 2: TGGTGGCTACGACGGGATT
# B4: AUGGAGC (DNA:RNA)
# RNA: B1 RNA with U25A, A26U, A27G, U28G, U29A, U31C
# DNA 1: CAATCTGAATTCCGGTCTCCC
# DNA 2: TGGTGGCTACGACGGGATT
# B5: UGGAGAU (DNA:RNA)
# RNA: B1 RNA with A26G, A27G, U28A, U29G, G30A
# DNA 1: CAATCTGAATTCCGGTCTCCC
# DNA 2: TGGTGGCTACGACGGGATT
# B6: GUCAUGG (DNA:RNA)
# RNA: B1 RNA with U25G, A26U, A27C, U28A, U31G
# DNA 1: CAATCTGAATTCCGGTCTCCC
# DNA 2: TGGTGGCTACGACGGGATT
# B7: CACCAAG (DNA:RNA)
# RNA: B1 RNA with U25C, A27C, U28C, U29A, G30A, U31G
# DNA 1: CAATCTGAATTCCGGTCTCCC
# DNA 2: TGGTGGCTACGACGGGATT
# B8: UCCCCGG (DNA:RNA)
# RNA: B1 RNA with A26C, A27C, U28C, U29C, U31G
# DNA 1: CAATCTGAATTCCGGTCTCCC
# DNA 2: TGGTGGCTACGACGGGATT
# B9: AACGGGA (DNA:RNA)
# RNA: B1 RNA with U25A, A27C, U28G, U29G, U31A
# DNA 1: CAATCTGAATTCCGGTCTCCC
# DNA 2: TGGTGGCTACGACGGGATT
# B10: GCCAAGC (DNA:RNA)
# RNA: B1 RNA with U25G, A26C, A27C, U28A, U29A, U31C
# DNA 1: CAATCTGAATTCCGGTCTCCC
# DNA 2: TGGTGGCTACGACGGGATT
# B11: UACUAGC (DNA:RNA)
# RNA: B1 RNA with A27C, U29A, U31C
# DNA 1: CAATCTGAATTCCGGTCTCCC
# DNA 2: TGGTGGCTACGACGGGATT
# B12: UUAGCUU (DNA:RNA)
# RNA: B1 RNA with A26U, U28G, U29C, G30U
# DNA 1: CAATCTGAATTCCGGTCTCCC
# DNA 2: TGGTGGCTACGACGGGATT
# B13: UCAUACG (DNA:RNA)
# RNA: B1 RNA with A26C, U29A, G30C, U31G
# DNA 1: CAATCTGAATTCCGGTCTCCC
# DNA 2: TGGTGGCTACGACGGGATT
# B14: UGCGCCG (DNA:RNA)
# RNA: B1 RNA with A26G, A27C, U28G, U29C, G30C, U31G
# DNA 1: CAATCTGAATTCCGGTCTCCC
# DNA 2: TGGTGGCTACGACGGGATT
# B15: CUGAACC (DNA:RNA)
# RNA: GGGAGACCGGAAUUCAGAUUGUCCCUGAACCUUAAAUCCCGUCGUAGCCACCA
# DNA 1: CAATCTGAATTCCGGTCTCCC
# DNA 2: TGGTGGCTACGACGGGATT
# B16: ACGGGAA (DNA:RNA)
# RNA: B15 RNA with C25A, U26C, A28G, A29G, C30A, C31A
# DNA 1: CAATCTGAATTCCGGTCTCCC
# DNA 2: TGGTGGCTACGACGGGATT
# B17: UCCCACG (DNA:RNA)
# RNA: B15 RNA with C25U, U26C, G27C, A28C, C31G
# DNA 1: CAATCTGAATTCCGGTCTCCC
# DNA 2: TGGTGGCTACGACGGGATT
# B18: GCAGGGA (DNA:RNA)
# RNA: B1 RNA with U25G, A26C, U28G, U29G, U31A
# DNA 1: CAATCTGAATTCCGGTCTCCC
# DNA 2: TGGTGGCTACGACGGGATT
# B19: CCCUGAU (DNA:RNA)
# RNA: B1 RNA with U25C, A26C, A27C, U29G, G30A
# DNA 1: CAATCTGAATTCCGGTCTCCC
# DNA 2: TGGTGGCTACGACGGGATT
# B20: GAUUCUC (DNA:RNA)
# RNA: B1 RNA with U25G, A27U, U29C, G30U, U31C
# DNA 1: CAATCTGAATTCCGGTCTCCC
# DNA 2: TGGTGGCTACGACGGGATT
# B21: GUUAUUG (DNA:RNA)
# RNA: B15 RNA with C25G, G27U, A29U, C30U, C31G
# DNA 1: CAATCTGAATTCCGGTCTCCC
# DNA 2: TGGTGGCTACGACGGGATT
# B22: GUUUCAG (DNA:RNA)
# RNA: B15 RNA with C25G, G27U, A28U, A29C, C30A, C31G
# DNA 1: CAATCTGAATTCCGGTCTCCC
# DNA 2: TGGTGGCTACGACGGGATT
# B23: UUACCAG (DNA:RNA)
# RNA: B1 RNA with A26U, U28C, U29C, G30A, U31G
# DNA 1: CAATCTGAATTCCGGTCTCCC
# DNA 2: TGGTGGCTACGACGGGATT
# B24: GCAGUUC (DNA:RNA)
# RNA: B1 RNA with U25G, A26C, U28G, G30U, U31C
# DNA 1: CAATCTGAATTCCGGTCTCCC
# DNA 2: TGGTGGCTACGACGGGATT
# B25: ACAUCGG (DNA:RNA)
# RNA: B1 RNA with U25A, A26C, U29C, U31G
# DNA 1: CAATCTGAATTCCGGTCTCCC
# DNA 2: TGGTGGCTACGACGGGATT
# B26: GCGCGAC (DNA:RNA)
# RNA: B15 RNA with C25G, U26C, A28C, A29G, C30A
# DNA 1: CAATCTGAATTCCGGTCTCCC
# DNA 2: TGGTGGCTACGACGGGATT
# B27: CGGUCUC (DNA:RNA)
# RNA: B15 RNA with U26G, A28U, A29C, C30U
# DNA 1: CAATCTGAATTCCGGTCTCCC
# DNA 2: TGGTGGCTACGACGGGATT
# B28: CUGCAUU (DNA:RNA)
# RNA: B15 RNA with A28C, C30U, C31U
# DNA 1: CAATCTGAATTCCGGTCTCCC
# DNA 2: TGGTGGCTACGACGGGATT
# B29: GCACCAA (DNA:RNA)
# RNA: B1 RNA with U25G, A26C, U28C, U29C, G30A, U31A
# DNA 1: CAATCTGAATTCCGGTCTCCC
# DNA 2: TGGTGGCTACGACGGGATT
# B30: GUGUAGA (DNA:RNA)
# RNA: B15 RNA with C25G, A28U, C30G, C31A
# DNA 1: CAATCTGAATTCCGGTCTCCC
# DNA 2: TGGTGGCTACGACGGGATT
# B31: ACGGCUC (DNA:RNA)
# RNA: B15 RNA with C25A, U26C, A28G, A29C, C30U
# DNA 1: CAATCTGAATTCCGGTCTCCC
# DNA 2: TGGTGGCTACGACGGGATT
# Molecular target: T1, RBFOX1 RRM RbFoxmut (Fox-RRM*)
# Assay: EMSA; HiTS-Eq, 1 nM pool, 10 min; buffer printed only for the single-RNA assays: 10 mM Tris pH 7.5, 150 mM NaCl, 3.4 mM EDTA, 0.001% NP-40, 30 C
# Details: tags: His6 N-terminal (pET28a); label: 5' 32P
# Outline: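 These values rest on relative association constants, computed from read-count changes of each RNA species versus the control reaction and normalised to the cognate motif. Reads came from free RNA recovered by 8% native PAGE after purified RbFox RRM (wild type or mutant) at increasing concentrations was equilibrated for 10 min in 50 µL with 1 nM of a 5′-radiolabelled pool with 7 randomized nucleotides and DNA-annealed flanks.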
row,Binder,binding signal
1,B1,0.0755 KA relative to UGCAUGU
2,B2,0.1 KA relative to UGCAUGU
3,B3,0.12 KA relative to UGCAUGU
4,B4,0.124 KA relative to UGCAUGU
5,B5,0.094 KA relative to UGCAUGU
6,B6,0.154 KA relative to UGCAUGU
7,B7,0.138 KA relative to UGCAUGU
8,B8,0.0768 KA relative to UGCAUGU
9,B9,0.0959 KA relative to UGCAUGU
10,B10,0.0532 KA relative to UGCAUGU
11,B11,0.0649 KA relative to UGCAUGU
12,B12,0.11 KA relative to UGCAUGU
13,B13,0.115 KA relative to UGCAUGU
14,B14,0.121 KA relative to UGCAUGU
15,B15,0.0804 KA relative to UGCAUGU
16,B16,0.124 KA relative to UGCAUGU

row,Binder,binding signal
1,B17,0.136 KA relative to UGCAUGU
2,B18,0.0749 KA relative to UGCAUGU
3,B19,0.0882 KA relative to UGCAUGU
4,B20,0.068 KA relative to UGCAUGU
5,B21,0.158 KA relative to UGCAUGU
6,B22,0.153 KA relative to UGCAUGU
7,B23,0.122 KA relative to UGCAUGU
8,B24,0.0819 KA relative to UGCAUGU
9,B25,0.0909 KA relative to UGCAUGU
10,B26,0.0897 KA relative to UGCAUGU
11,B27,0.088 KA relative to UGCAUGU
12,B28,0.0889 KA relative to UGCAUGU
13,B29,0.108 KA relative to UGCAUGU
14,B30,0.127 KA relative to UGCAUGU
15,B31,0.0927 KA relative to UGCAUGU
